Source: PubChem BioAssay AID686979 (National Center for Advancing Translational Sciences (NCATS), 2013)
Values joined by “and” are separate entries in the source; they are usually repeats but may differ in a detail not shown here. Equal values may be shown once. Among all 420,000 compounds or so, about 50,000 (12%) were called active. The shares of active, inactive and inconclusive entries below differ from those in the screen. Calls follow the shape of the dose curve; as a rule, active = well fitted inhibition curve with a large enough effect; inconclusive = small, poorly fitted or top-dose-only effect; inactive = flat fitted curve, though single readings scatter. Potencies beside an inconclusive call are fits to weak or partial responses and may not hold up.

assay: qHTS for Inhibitors of human tyrosyl-DNA phosphodiesterase 1 (TDP1): qHTS in cells in presence of CPT; conditions: chicken DT40 Tdp1-/-;hTDP1 cells + 20 nM CPT, ATP luminescence, 48 h; activity change, negative = growth inhibition: at 46.2 µM (top of the series); also: nearly all actives have a fitted effect of over 55% in size
Summary of the method: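 Cell growth measured by CellTiter-Glo luminescence after a minimum 48 h, 37 C compound exposure with 20 nM CPT in Tdp1-knockout DT40 cells stably expressing hTDP1, seeded 400/well; qHTS titration format.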
% is scaled to controls: 0 for no effect and ±100 for the full control effect; potency is read from the fitted curve at half-maximal effect; tags tell the direction and shape of the fitted curve.

Row | Compound | activity change, negative = growth inhibition | Potency
1 | Clc1ccc(-n2ncc3c(NCc4cccs4)ncnc32)cc1 | inactive: -6.15% | –
2 | COc1ccc(-c2ccc3[nH]c4c(c3c2)CCN2C(=O)[C@@H]([C@H](C)O)[C@@H](N(C)C(=O)Nc3ccc(F)cc3)C[C@@H]42)cc1 | – | inconclusive: 25.9 µM [inhibitor, single point]
3 | CN(c1ccc(C(=O)NC2CCCCC2)cc1)S(=O)(=O)c1ccccc1 | – | inconclusive: 20.6 µM [inhibitor, single point]
4 | CCCNC(=S)Nc1c(C)n(C)n(-c2ccccc2)c1=O | inactive: 1.72% | –
5 | COc1ccc(C(=O)NCCNc2nc3c(C)cccc3cc2C#N)cc1 | – | inconclusive: 29.1 µM [inhibitor, single point]
6 | CCc1nn2cc(C(=O)c3cc(C)ccc3O)cnc2c1-c1ccc(F)cc1 | – | inconclusive: 18.4 µM [inhibitor, single point]
7 | c1ccc(C[n+]2c(-c3ccccc3)csc2Nc2ccccc2)cc1 | – | active: 10.3 µM
8 | CCn1c2c(c(=O)n3ncc(C(=O)N4CCN(c5ccc(Cl)cc5)CC4)c13)CN(Cc1ccc(OC)cc1)CC2 | – | active: 2.31 µM
9 | Cc1cccc(C)c1-n1nnnc1C1(C)CCC(=O)N1CC(F)(F)F (centres undefined) | inactive: -21.9% | –
10 | CCS(=O)(=O)N1CCN(C(=O)c2ccc(-c3ccccc3)cc2)CC1 | – | inconclusive: 23.1 µM [inhibitor, partial curve]
11 | O=C(Nc1cccc(-c2nc3ccccc3[nH]2)c1)c1ccco1 | – | inconclusive: 13 µM [inhibitor, single point]
12 | Cc1cc2oc(=O)cc(Cn3ncc(Cl)c(Cl)c3=O)c2cc1Cl | – | active: 3.26 µM
13 | Cc1cc2c(cc1C)CSC(c1ccccc1OC(=O)C(C)(C)C)SC2 | – | inconclusive: 18.4 µM [inhibitor, single point]
14 | Cc1ccc(C(=O)NCCn2cc(SCC(=O)Nc3nnc(C)s3)c3ccccc32)cc1 | – | inconclusive: 25.9 µM [inhibitor, single point]
15 | Cc1ccc(S(=O)(=O)NCC(=O)OCC(=O)Nc2cccc(S(=O)(=O)NC3=NCCCCC3)c2)cc1C | inactive: -0.452% | –
16 | O=c1/c(=C/c2ccccc2)sc2nnc(-c3cccs3)n12 | – | inconclusive: 18.4 µM [inhibitor, partial curve, poor fit]
17 | c1ccc2c(c1)-c1nc3ccccc3cc1C2N1CCOCC1 (centres undefined) | – | inconclusive: 16.4 µM [inhibitor, single point]
18 | COC(=O)c1cc2oc3ccccc3c2n1Cc1ccc(Cl)cc1 | – | inconclusive: 11.6 µM [inhibitor, partial curve]
19 | S=c1[nH]nc(C2CCCCC2)n1/N=C/c1ccc(Cl)cc1 | – | inconclusive: 25.9 µM [inhibitor, single point]
20 | COc1cccc(-c2nc3ccc(C(=O)NC(C)Cc4cccnc4)cc3o2)c1 (centres undefined) | – | active: 9.2 µM
21 | COc1ccc(-c2nc3scc(CCNS(=O)(=O)c4ccc(F)cc4C)n3n2)cc1 | – | active: 16.4 µM
22 | COc1ccc(NC(=O)CS(=O)c2ccc(Cl)c(Cl)c2)cc1 (centres undefined) | – | inconclusive: 29.1 µM [inhibitor, single point]
23 | CSc1nnc(NC(=O)c2ccc(S(=O)(=O)N3CCOCC3)cc2)s1 | inactive: -2.03% | –

Row | Compound | activity change, negative = growth inhibition | Potency
24 | COC(=O)c1ccc2c(c1)c(-c1ccccc1)c(-c1ccccc1)n2C | inactive: -28.2% | –
25 | Cc1ccccc1N1CCN(C(=O)c2ccc(Oc3ccc(C(F)(F)F)cn3)cc2)CC1 | – | active: 8.91 µM
26 | CCC1=C(OC(=O)N(CC)CC)N2C(=O)OC(=NCCc3c[nH]c4ccccc34)[C@]2(C)[C@H]2C1=CC[C@H]1C(=O)N(CC)C(=O)[C@H]12 | – | inconclusive: 29.1 µM [inhibitor, single point]
27 | CC(=O)N1c2ccc(S(=O)(=O)NCC3CCC(C(=O)NC4CCCCC4C)CC3)cc2CC1C (centres undefined) | – | inconclusive: 18.4 µM [inhibitor, single point]
28 | CCOC(=O)Cc1csc(NC(=O)CCc2ccc(S(=O)(=O)N3CCOCC3)cc2)n1 | – | inconclusive: 16.4 µM [inhibitor, single point]
29 | Cc1ccc(C(=O)O/N=C\c2ccc(N3CCCCC3)c([N+](=O)[O-])c2)cc1 | – | inconclusive: 23.1 µM [inhibitor, single point]
30 | CC(C)C[C@@]12C(=O)N(c3cccc(F)c3)C(=O)N1[C@H](c1ccc(F)cc1)[C@@H]1C(=O)N(C3CCCCC3)C(=O)[C@@H]12 | – | inconclusive: 29.1 µM [inhibitor, single point]
31 | CC(C)COc1ccc(C(=O)N2CCN(CCc3ccncc3)CC2)cc1 | – | inconclusive: 18.4 µM [inhibitor, partial curve]
32 | Cc1oc(-c2ccc(Cl)cc2)nc1CS(=O)CC(=O)NCc1ccccn1 (centres undefined) | inactive: -0.335% | –
33 | CN(C)c1ccc(/C=C/c2c(F)cnc3ccccc23)cc1 | – | active: 7.94 µM
34 | Cc1nc(NC(=O)CSc2nnc(-c3ccccc3)c(-c3ccccc3)n2)c(Cl)cc1Cl | – | active: 23.1 µM
35 | COc1ccc(Nc2cc(C(=O)NCCCN3CCN(c4ccccc4F)CC3)c3ccccc3n2)c(OC)c1 | – | inconclusive: 18.4 µM [inhibitor, single point]
36 | Cc1ccc(-c2ccc(=O)n(CCC(=O)NCCc3ccccc3)n2)cc1 | – | inconclusive: 23.1 µM [inhibitor, single point]
37 | CN1C(=O)[C@@](O)(CC(=O)c2ccccc2)c2cc(Br)ccc21 | – | active: 5.8 µM
38 | CCOC(=O)c1cc(CC)sc1NC(=O)COC | inconclusive: -30.7% [inhibitor] | –
39 | COc1ccc(NC(=S)N/N=C2\CC(C)(C)Oc3ccc(O)cc32)cc1 | – | inconclusive: 20.6 µM [inhibitor, single point]
40 | CCOC(=O)C1CCN(S(=O)(=O)c2ccc3c4c(cccc24)C(=O)N3)CC1 | inactive: -1.21% | –
41 | Cc1ccccc1NC(=O)C(C)OC(=O)CCC(=O)c1ccccc1 (centres undefined) | inactive: 3.04% | –
42 | CC(C)C[C@H]1CNC(=O)C(=O)N1C[C@@H]1CCCN1C[C@H](Cc1ccc(O)cc1)N1C[C@H](Cc2ccccc2)N(CC2CCCCC2)C(=O)C1=O | – | inconclusive: 25.9 µM [inhibitor, single point]
43 | O=C(NCCc1ccc(F)cc1)Nc1ccc([N+](=O)[O-])cc1 | – | active: 29.1 µM
44 | COc1ccccc1C(=O)Nc1ccc(N2CCCCC2)cc1 | – | inconclusive: 16.4 µM [inhibitor, partial curve]
45 | CCN(CC)CCNC(=O)c1cc2c(=O)n(C)c3cc(Cl)ccc3c2s1 | – | inconclusive: 23.1 µM [inhibitor, partial curve]
46 | CCOc1cc(C)c(C(C)C)cc1S(=O)(=O)N1CC(C)OC(C)C1 (centres undefined) | – | inconclusive: 25.9 µM [inhibitor, single point]

Row | Compound | activity change, negative = growth inhibition | Potency
47 | C[C@H](CO)N1C[C@H](C)[C@H](CN(C)Cc2cccc(C(F)(F)F)c2)OCc2ccccc2-c2c(n(C)c3ccccc23)C1=O | inactive: 5.69% | –
48 | O=C1C(Nc2ccccc2)=C/C(=N/S(=O)(=O)c2cccs2)c2ccccc21 | – | active: 2.91 µM
49 | CCc1ccc(C(C)(O)C(CN2CCOCC2)c2ccccc2)cc1 (centres undefined) | – | active: 20.6 µM
50 | COc1ccc2c(c1)sc(N)[n+]2Cc1cc(C)cc2cccnc12 | – | active: 4.61 µM
51 | Cc1ccc(Cn2c(CO)cnc2SCC(=O)Nc2ccc(C)c(Cl)c2)cc1 | – | active: 18.4 µM
52 | CCOC(=O)c1ccc(S(=O)(=O)N2CCC(C(=O)N3CCN(c4ccccc4OC)CC3)CC2)cc1 | – | inconclusive: 25.9 µM [inhibitor, partial curve, poor fit]
53 | CC(C)c1ccc(S(=O)(=O)NC2CCCC2)cc1 | – | inconclusive: 32.6 µM [inhibitor, single point]
54 | COc1ccc(N(CC(=O)NCc2ccccc2C)S(=O)(=O)c2ccccc2[N+](=O)[O-])c(OC)c1 | – | inconclusive: 3.66 µM [inhibitor, single point]
55 | CCN1CCc2c(sc(-n3cccc3)c2C(C)NC(=O)Nc2ccc(Br)cc2)C1 (centres undefined) | – | active: 16.4 µM
56 | COc1cccc(Nc2nnc(SCc3nc4ccccc4s3)s2)c1 | – | inconclusive: 29.1 µM [inhibitor, single point]
57 | O=C(O)C1CCCN1c1nc(Cl)ccc1[N+](=O)[O-] (centres undefined) | inactive: 7.86% | –
58 | CCn1c(CNC(=O)c2ccc(OC)c(OC)c2)nnc1SCC(=O)Nc1ccccc1 | inactive: 12.4% | –
59 | CC1(C)Cc2c(sc(NC(=O)COc3ccccc3)c2C#N)C(C)(C)N1 | – | inconclusive: 29.1 µM [inhibitor, single point]
60 | CC(=O)Nc1cccc(-c2csc(Nc3ccc(Cl)cn3)n2)c1 | – | active: 23.1 µM
61 | COc1ccccc1CNC(=O)c1ccc(CS(=O)Cc2cccc(Cl)c2)o1 (centres undefined) | – | inconclusive: 29.1 µM [inhibitor, single point]
62 | CCOC(=O)C[C@H]1c2ccccc2S(=O)(=O)N1c1ccccc1 | – | inactive and inconclusive: 35.5 µM [inhibitor, single point]
63 | Cc1cccc(-n2cnc3cc(C(=O)NCCN4CCOCC4)ccc32)c1 | inactive: -14.4% | –
64 | OC[C@H]1O[C@@H](O[C@@H]2[C@@H](CO)O[C@@](O)(CO)[C@H]2O)[C@H](O)[C@@H](O)[C@H]1O | inactive: -3.66% | –
65 | Cc1ccc(C(=O)N(Cc2ccccc2)C(C)(C)C)cc1C | – | active: 16.4 µM
66 | CN(Cc1ccccc1)C(=O)c1nc[nH]c1C(=O)N1CCc2ccccc2C1 | – | inconclusive: 18.4 µM [inhibitor, single point]
67 | Cn1ccc2c(-c3cccc4ccccc34)cc3c(c21)C1CCC3C1 (centres undefined) | inactive: -51.3% | –
68 | COc1cccc(NC(=S)N(CCN2CCCCC2)Cc2ccco2)c1 | – | inconclusive: 29.1 µM [inhibitor, single point]
69 | CCN(CC(=O)NCc1ccc(Cl)cc1)C(=O)CN1C(=O)NC(C)(c2ccccc2)C1=O (centres undefined) | inactive: -0.665% | –
